Assay results from the supplement of paper PMC4967469.
By IC50 is meant the dose at which the fit gives 50% viability; where the fit passes the top or lowest dose, that dose stands as a limit. The AUC spans the tested range (256-fold, ending at the top dose) of the same fit; it is 1 without any effect and falls as sensitivity rises.

compound: NC1(c2ccc(-c3nc4ccn5c(=O)[nH]nc5c4cc3-c3ccccc3)cc2)CCC1 [MK-2206]; test: Viability of human cancer cell lines after 72 h of drug (GDSC screen)
Description: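 Human cancer cell lines in 384-well plates, medium with 10% serum, drug for 72 h over a 256-fold dose range (nine 2-fold or five 4-fold steps up to the top dose). Adherent lines were fixed and stained with the nucleic acid dye Syto60, suspension lines read with resazurin; signal relative to control wells, capped at 0 and 100%. One two-parameter sigmoid per drug and line, fitted in a mixed model over all curves with the slope shared within a line.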

Cell Line	AUC	IC50 [nM]
LU-139 (small cell lung carcinoma, suspension, top dose 4 µM)	0.896	> 4000
LU-165 (small cell lung carcinoma, suspension, top dose 4 µM)	0.985	> 4000
LXF-289 (lung adenocarcinoma, adherent, top dose 4 µM)	0.655	666
LoVo (large intestine, adherent, top dose 4 µM)	0.712	1000
M059J (glioma, adherent, top dose 4 µM)	0.943	> 4000
MC116 (B-cell lymphoma, suspension, top dose 4 µM)	0.999	> 4000
MC-CAR (haematopoietic neoplasm, suspension, top dose 4 µM)	0.476	216
MC-IXC (neuroblastoma, adherent, top dose 4 µM)	0.942	3910
MDA-MB-157 (breast, adherent, top dose 4 µM)	0.901	> 4000
MDA-MB-231 (breast, adherent, top dose 4 µM)	0.983	> 4000
MDA-MB-330 (breast, adherent, top dose 4 µM)	0.625	580
MDA-MB-361 (breast, adherent, top dose 4 µM)	0.633	
MDA-MB-415 (breast, adherent, top dose 4 µM)	0.649	744
MDA-MB-436 (breast, adherent, top dose 4 µM)	0.871	> 4000
MDA-MB-453 (breast, adherent, top dose 4 µM)	0.862	> 4000
MDA-MB-468 (breast, adherent, top dose 4 µM)	0.866	3340
MDST8 (large intestine, adherent, top dose 4 µM)	0.9	> 4000
ME-1 (acute myeloid leukaemia, suspension, top dose 4 µM)	0.987	> 4000
ME-180 (cervix, adherent, top dose 4 µM)	0.537	317
MEG-01 (chronic myeloid leukaemia, suspension, top dose 4 µM)	0.957	> 4000
MEL-HO (melanoma, adherent, top dose 4 µM)	0.863	3510

Cell Line	AUC	IC50 [nM]
MEL-JUSO (melanoma, adherent, top dose 4 µM)	0.787	1970
MES-SA (uterus, adherent, top dose 4 µM)	0.878	3050
MFE-280 (endometrium, adherent, top dose 4 µM)	0.789	2300
MFE-296 (endometrium, adherent, top dose 4 µM)	0.719	1100
MFH-ino (soft tissue, adherent, top dose 4 µM)	0.733	1320
MFM-223 (breast, adherent, top dose 4 µM)	0.668	727
MG-63 (osteosarcoma, adherent, top dose 4 µM)	0.884	> 4000
MHH-CALL-2 (B-cell leukaemia, suspension, top dose 4 µM)	0.996	> 4000
MHH-ES-1 (Ewing sarcoma, adherent, top dose 4 µM)	0.822	2290
MHH-NB-11 (neuroblastoma, adherent, top dose 4 µM)	0.921	> 4000
MHH-PREB-1 (B-cell leukaemia, suspension, top dose 4 µM)	0.815	1920
MIA-PaCa-2 (pancreas, adherent, top dose 4 µM)	0.733	1250
MKN7 (stomach, adherent, top dose 4 µM)	0.949	> 4000
MKN28 (stomach, adherent, top dose 4 µM)	0.862	3570
ML-2 (acute myeloid leukaemia, suspension, top dose 4 µM)	0.981	> 4000
MLMA (hairy cell leukaemia, semi-adherent, top dose 4 µM)	0.807	2070
MM1S (myeloma, suspension, top dose 4 µM)	0.421	154
MN-60 (B-cell leukaemia, suspension, top dose 4 µM)	0.977	> 4000
MOG-G-CCM (glioma, adherent, top dose 4 µM)	0.816	2700
MOG-G-UVW (glioma, adherent, top dose 4 µM)	0.898	> 4000
MOLM-13 (acute myeloid leukaemia, suspension, top dose 4 µM)	0.865	3160

Cell Line	AUC	IC50 [nM]
MOLM-16 (acute myeloid leukaemia, suspension, top dose 4 µM)	0.483	226
MOLP-8 (myeloma, suspension, top dose 4 µM)	0.739	1170
MOLT-4 (lymphoblastic leukaemia, suspension, top dose 4 µM)	0.524	286
MOLT-13 (T-cell lymphoblastic leukaemia, suspension, top dose 4 µM)	0.972	> 4000
MOLT-16 (T-cell lymphoblastic leukaemia, suspension, top dose 4 µM)	0.535	306
MONO-MAC-6 (acute myeloid leukaemia, suspension, top dose 4 µM)	0.714	1050
MPP-89 (mesothelioma, adherent, top dose 4 µM)	0.934	> 4000
MRK-nu-1 (breast, suspension, top dose 4 µM)	0.99	> 4000
MS751 (cervix, adherent, top dose 4 µM)	0.975	> 4000
MS-1 (small cell lung carcinoma, suspension, top dose 4 µM)	0.963	> 4000
MSTO-211H (mesothelioma, adherent, top dose 4 µM)	0.878	3400
MV-4-11 (leukaemia, suspension, top dose 4 µM)	0.832	1950
MY-M12 (leukaemia, suspension, top dose 4 µM)	0.755	1520
MZ1-PC (pancreas, adherent, top dose 4 µM)	0.955	> 4000
MZ2-MEL (melanoma, adherent, top dose 4 µM)	0.664	779
MZ7-mel (melanoma, adherent, top dose 4 µM)	0.973	> 4000
Mo-T (hairy cell leukaemia, suspension, top dose 4 µM)	0.552	347
NALM-6 (B-cell leukaemia, suspension, top dose 4 µM)	0.699	
NAMALWA (Burkitt lymphoma, suspension, top dose 4 µM)	0.816	1790
NB1 (neuroblastoma, semi-adherent, top dose 4 µM)	0.612	527
NB5 (neuroblastoma, adherent, top dose 4 µM)	0.842	2850

Cell Line	AUC	IC50 [nM]
NB6 (neuroblastoma, adherent, top dose 4 µM)	0.981	> 4000
NB7 (neuroblastoma, adherent, top dose 4 µM)	0.912	> 4000
NB10 (neuroblastoma, adherent, top dose 4 µM)	0.975	> 4000
NB12 (neuroblastoma, adherent, top dose 4 µM)	0.843	> 4000
NB13 (neuroblastoma, adherent, top dose 4 µM)	0.947	> 4000
NB14 (neuroblastoma, adherent, top dose 4 µM)	0.879	3670
NB17 (neuroblastoma, adherent, top dose 4 µM)	0.984	> 4000
NB69 (neuroblastoma, adherent, top dose 4 µM)	0.807	1780
NB(TU)1-10 (neuroblastoma, adherent, top dose 4 µM)	0.993	> 4000
NB-4 (acute myeloid leukaemia, suspension, top dose 4 µM)	0.959	> 4000
NCC010 (kidney, adherent, top dose 4 µM)	0.859	3730
NCC021 (kidney, adherent, top dose 4 µM)	0.708	1080
NCI-H23 (lung adenocarcinoma, adherent, top dose 4 µM)	0.923	> 4000
NCI-H28 (mesothelioma, adherent, top dose 4 µM)	0.877	> 4000
NCI-H64 (small cell lung carcinoma, suspension, top dose 4 µM)	0.929	3590
NCI-H69 (small cell lung carcinoma, suspension, top dose 4 µM)	0.801	2210
NCI-H82 (small cell lung carcinoma, suspension, top dose 4 µM)	0.925	> 4000
NCI-H146 (small cell lung carcinoma, suspension, top dose 4 µM)	0.995	> 4000
